From PubChem BioAssay AID624418 (National Center for Advancing Translational Sciences (NCATS), 2012)
Screen size: about 410,000 compounds; about 530 (0.13%) were called active. The shares of active, inactive and inconclusive entries below differ from those in the screen. Calls follow the shape of the dose curve; as a rule, active = well fitted inhibition curve with a large enough effect; inconclusive = small, poorly fitted or top-dose-only effect, or another doubt; inactive = no such curve, though single readings can be large or run the other way. Potencies of inconclusive entries are doubtful fits and often do not repeat.

assay: qHTS of GLP-1 Receptor Inverse Agonists: Cytotox Screen; details: HEK293 cAMP-luciferase reporter cells, luminescence, 24 h; activity change, negative = inhibition: at 38.3 µM (top of the series) unless noted
How it was run: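 A 23 nL compound transfer followed 12 hours of cell culture at 37 deg C; exposure then lasted 24 hr. Luciferase assay detection reagent was dispensed and plates read for luminescence after a 12 min room-temperature wait.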
% is scaled to controls: 0 for no effect and ±100 for the full control effect; potency is read from the fitted curve at half-maximal effect.

Row | SMILES | activity change, negative = inhibition | Potency
1 | Cc1ccc(/C=C/C(=O)O)cc1S(=O)(=O)NCc1ccco1 | inactive: -2.94% | 
2 | CCC(NS(=O)(=O)c1ccc(C)cc1)C(=O)N1CCC2(O)CCCCC2C1 (centres undefined) | inactive: -10.6% | 
3 | O=C(NCCc1ccc(Cl)cc1)c1ccc2c(c1)N(Cc1c(F)cccc1Cl)C(=O)CS2 |  | inconclusive: 22.4 µM [inhibitor, single point]
4 | COc1cccc(/C=N/NC(=O)CNC(=O)c2ccc(S(=O)(=O)N3CCOCC3)cc2)c1OC |  | inconclusive: 11.2 µM [inhibitor, single point]
5 | O=C(NCc1ccco1)c1ccc(Cn2c(=O)c3ccccc3n(Cc3cccc(F)c3)c2=O)cc1 |  | inconclusive: 14.1 µM [inhibitor, partial curve, poor fit]
6 | CN(/N=C/c1ccc([N+](=O)[O-])o1)c1ccccc1 |  | inconclusive: 10 µM [inhibitor, single point]
7 | CCOc1cc(C(=O)N2CCN(C/C=C/c3ccccc3)CC2)cc(OCC)c1OCC |  | inconclusive: 0.891 µM [inhibitor, full curve, poor fit]
8 | CCC(=O)NC(=S)Nc1cccc(Cl)c1N1CCCC1 |  | inconclusive: 7.08 µM [inhibitor, partial curve, poor fit]
9 | COc1ccccc1N(/N=C1\Sc2ccccc2C1=O)C(C)=O |  | inconclusive: 12.6 µM [inhibitor, single point]
10 | COc1ccc2ccc3c(c2c1)N=C[C@]1(O3)N(C)c2ccccc2C1(C)C |  | inconclusive: 10 µM [inhibitor, partial curve, poor fit]
11 | Cc1ccc(Cn2cc3c(n2)-c2c(oc(C(=O)Nc4ccc(F)cc4F)c2C)CC3)cc1 | inactive: -6.86% | 
12 | O=C(CSc1nc2ccccc2s1)N1c2ccccc2Sc2ccc(C(F)(F)F)cc21 | inactive: 2.83% | 
13 | Cc1ccsc1C(=O)OCC(=O)Nc1ccc(Cl)cn1 |  | inconclusive: 0.631 µM [inhibitor, full curve, poor fit]
14 | Cc1nc(SCC(=O)Nc2ccc(Cl)cc2C(F)(F)F)[nH]c(=O)c1Cc1ccccc1 | inactive: 2.47% | 
15 | CCOc1ccc(N2CC(C(=O)N3CCCCC3)CC2=O)cc1 (centres undefined) | inactive: 4.78% | 
16 | C[C@H](CO)N1C[C@H](C)[C@@H](CN(C)Cc2ccc(C(=O)O)cc2)Oc2c(NS(=O)(=O)c3ccccc3)cccc2C1=O |  | inconclusive: 1 µM [inhibitor, full curve, poor fit]
17 | COc1ccc(OCc2n(CC(=O)OC3CC(C)CCC3C(C)C)c3ccccc3[n+]2C)cc1 (centres undefined) |  | inconclusive: 11.2 µM [inhibitor, partial curve, poor fit]
18 | CCOC(=O)C(=NO)C1=CSC2=NNC(C)(C)N12 |  | inconclusive: 28.2 µM [inhibitor, single point]
19 | OC(COC1CCCCC1)CN1CCN(c2ccccc2)CC1 (centres undefined) | inactive: 0.577% | 
20 | CC1CC(C)C(=O)C(C(CC2CC(=O)NC(=O)C2)OC(=O)CC(=O)c2ccccc2)C1 (centres undefined) |  | inconclusive: 6.31 µM [inhibitor, partial curve, poor fit]
21 | NC(=S)N/N=C/c1ccc(-c2cc(Cl)cc(Cl)c2)o1 |  | inconclusive: 2.82 µM [inhibitor, full curve, poor fit]
22 | O=C(Cn1c(=O)oc2cc(S(=O)(=O)N3CCCC3)ccc21)Nc1ccc(OC(F)(F)F)cc1 | inactive: 7.07% | 

Row | SMILES | activity change, negative = inhibition | Potency
23 | COc1ccc(NC(=O)C(CC(=O)O)C(C)c2ccccc2)cc1 (centres undefined) | inactive: -23.6% | 
24 | CCN1CCN(c2oc(-c3ccccc3C)nc2S(=O)(=O)c2ccccc2)CC1 |  | inconclusive: 12.6 µM [inhibitor, single point]
25 | CCOc1cccc2cc(-c3nc(-c4ccc(Cl)cc4)c(C)s3)c(=O)oc12 | inactive: 2.26% | 
26 | CN1CCN(C(=S)c2cn(Cc3cccc(F)c3)c3ccccc23)CC1 | inactive: -12.6% | 
27 | CCOC(=O)Cc1ccc(NC(=O)c2ccccc2Br)cc1 | inactive: -9.46% | 
28 | CC(C)(C)c1ccc(/C=C/C(=O)N2CCc3ccccc3C2)cc1 |  | inconclusive: 2.82 µM [inhibitor, full curve]
29 | CCCn1c(C(C)Nc2nc(-c3ccc(C)cc3)cs2)nc2ccccc21 (centres undefined) |  | inconclusive: 28.2 µM [inhibitor, single point]
30 | CC(C)(C)c1ccc(C(=O)N2CCC(NC(=O)c3ccccc3)CC2)cc1 | inactive: -0.105% | 
31 | COc1ccc(CCn2c(C3CCCCC3)nc3c(c(=O)c4ccccc4n3C)c2=O)cc1 |  | active: 5.01 µM
32 | Cc1cccc(OCC(=O)NCC2(N3CCN(C)CC3)CCCCC2)c1 | inactive: 3.68% | 
33 | Cc1nc2ccccc2c2oc(C(=O)NCCCN3CCC(C)CC3)cc12 |  | inconclusive: 11.2 µM [inhibitor, partial curve, poor fit]
34 | COc1cc(C(=O)NC(=S)N(C)Cc2ccccc2)cc(OC)c1OC |  | inconclusive: 1 µM [inhibitor, full curve]
35 | Cc1[nH]c2ccc(C(=O)NCCc3ccccc3Cl)cc2c1C | inactive: -9.87% | 
36 | Cc1ccc(-c2c[n+](CC(=O)Nc3nc(-c4ccc(F)cc4)cs3)c3n2CCC3)cc1 |  | inconclusive: 11.2 µM [inhibitor, partial curve, poor fit]
37 | CC(C)Oc1cccc(C(=O)NC(=S)Nc2ccccc2)c1 |  | inconclusive: 22.4 µM [inhibitor, single point]
38 | CN1CCN(C(=O)CCN2C(=O)/C(=C\c3ccc(F)cc3)SC2=S)CC1 |  | inconclusive: 7.08 µM [inhibitor, partial curve, poor fit]
39 | S=C(Nc1ccccc1)Nc1ccccn1 |  | inconclusive: 28.2 µM [inhibitor, single point]
40 | Cc1cc(C)cc(C(=O)NC(=S)Nc2ccc3c(c2)OCCO3)c1 |  | inconclusive: 28.2 µM [inhibitor, single point]
41 | Cc1ccc2[nH]c(C(=O)O)c(NC(=O)CN3CCN(c4cccc(C)c4C)CC3)c2c1 | inactive: -18% | 
42 | COC(=O)c1ccc(Cl)c(NS(=O)(=O)c2ccc3c(c2)OCCO3)c1 |  | inconclusive: 4.47 µM [inhibitor, full curve]
43 | CCOC(=O)/C(=C\c1cccc(O)c1)c1nc2sc(C)c(C)c2c(=O)[nH]1 |  | inconclusive: 8.91 µM [inhibitor, partial curve, poor fit]
44 | Cc1ccc(C)c(OCC(O)CN2CCN(CCN3C(=O)c4cccc5cccc(c45)C3=O)CC2)c1 (centres undefined) |  | inconclusive: 28.2 µM [inhibitor, single point]
